# This is one part of the list. Antibody binding of pooled human sera (four to six donors per pool; dilution not stated) to peptides of the Trypanosoma cruzi antigen TSSA on microarrays. Quantile-normalised fluorescence in arbitrary units, mean of duplicate arrays; higher = more binding. No active / inactive call. The uninfected pools are read here as the healthy donors of the same country. The strongest signals lie near the top of the scale (about 60,000).
# Legend:
# Assay in all cases: antibody binding signal (normalised fluorescence) (arbitrary fluorescence units); higher = stronger serum antibody binding to peptide
# [1] = system: pooled sera of chronic Chagas disease patients, Argentina
# Experimental: (§1)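 Microarray of 15-residue peptides over residues 30-55 of Trypanosoma cruzi TSSAII, each with 1 to 10 substitutions at naturally variable positions, probed with one serum pool per country.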
# [2] = system: pooled sera of chronic Chagas disease patients, Bolivia
# Experimental: as §1
# [3] = system: pooled sera of chronic Chagas disease patients, Brazil
# Experimental: as §1
# [4] = system: pooled sera of chronic Chagas disease patients, Colombia
# Experimental: as §1
# [5] = system: pooled sera of chronic Chagas disease patients, Mexico
# Experimental: as §1
# [6] = system: pooled sera of chronic Chagas disease patients, USA
# Experimental: as §1
# [7] = system: pooled sera of uninfected people, Argentina
# Experimental: as §1
# [8] = system: pooled sera of uninfected people, Bolivia
# Experimental: as §1
# [9] = system: pooled sera of uninfected people, Brazil
# Experimental: as §1
# [10] = system: pooled sera of uninfected people, Colombia
# Experimental: as §1
# [11] = system: pooled sera of uninfected people, Mexico
# Experimental: as §1
# [12] = system: pooled sera of uninfected people, USA
# Experimental: as §1
Sequence,antibody binding signal [1],antibody binding signal [2],antibody binding signal [3],antibody binding signal [4],antibody binding signal [5],antibody binding signal [6],antibody binding signal [7],antibody binding signal [8],antibody binding signal [9],antibody binding signal [10],antibody binding signal [11],antibody binding signal [12]
PPSGTENKTATGEAP,47900,40500,41200,592,3750,23200,1700,313,247,318,196,395
TDKKTAAGGAPSPSG,851,466,324,7650,873,796,241,112,219,208,283,168
SGTDNKPAAGEAPSP,8130,3290,45700,3310,251,18000,130,453,201,168,359,213
DNKPAAGEAPSQSGA,489,18400,29600,344,205,15400,68.8,270,323,98.5,198,81.6
TPPSGKDNKAAAGGT,769,218,1010,559,33800,2880,301,646,688,215,90.6,118
KEKKPAAGGAPSPPG,175,215,269,1410,178,465,113,86.1,124,86.5,65.3,326
KPAAGGTPSQSGASS,160,211,350,1220,350,294,275,196,262,171,244,167
SGKENKPAAGEAPSP,6010,4910,29500,4230,4750,17900,7260,4250,168,313,576,133
SGKENKAAAGEAPSQ,4200,6300,28200,7350,5550,19400,8940,3370,107,452,398,149
SGKDNKAATGGAPSP,1050,348,720,1830,1250,1920,276,212,112,286,103,114
EKKTATGETPSQPGA,1190,1310,30500,443,427,6920,372,1370,238,195,436,806
ISTPPSGKDKKPATG,26300,1240,5170,257,52200,902,347,636,132,164,129,119
KEKKPATGGTPSPPG,338,226,152,547,196,263,159,97.7,202,108,81.9,331
DKKAATGEAPSQSGA,20000,17900,31100,190,402,24500,638,85.8,163,805,149,240
GTDKKPATGGTPSQS,558,450,2000,5610,1100,1030,306,528,1100,199,692,160
TPPSGKDNKPAAGET,5600,14900,29600,282,23900,14900,343,884,298,316,356,218
TSSTPPSGTDNKTAA,38000,48800,52500,1290,13900,22100,3710,764,1930,426,239,648
GKEKKAATGGTPSPP,3260,335,358,2490,3660,2560,139,69.1,200,445,73.5,104
ENKAATGEAPSPPGA,24300,41800,38300,262,217,28100,191,145,126,129,105,125
SGTDKKAATGGTPSQ,1020,385,2980,4830,1140,1130,317,138,629,1230,624,183
SSTPPSGTEKKAAAG,42000,14900,35800,861,15800,5360,1180,441,174,173,151,253
TPPSGKDKKAAAGET,3470,569,709,451,39700,1170,185,538,103,197,145,96.2
KAATGGAPSQPGASS,698,309,7160,247,384,263,348,102,109,103,99.7,113
TPPSGTEKKTATGEA,28900,16700,25400,256,8200,1540,621,199,363,108,116,118
TDNKPAAGGAPSQSG,982,979,4360,1180,292,518,149,306,316,238,410,131

Sequence,antibody binding signal [1],antibody binding signal [2],antibody binding signal [3],antibody binding signal [4],antibody binding signal [5],antibody binding signal [6],antibody binding signal [7],antibody binding signal [8],antibody binding signal [9],antibody binding signal [10],antibody binding signal [11],antibody binding signal [12]
KDKKAAAGEAPSQPG,1970,1560,27800,201,211,7310,107,84.2,117,98.4,75,94.4
GKEKKPAAGGAPSQP,4220,247,1170,4140,3680,2950,114,96.1,121,107,84.2,276
SGTDKKPAAGGAPSQ,645,564,22600,14200,2120,1070,207,203,315,287,1850,302
TDNKAATGGTPSPSG,475,982,358,284,388,244,149,245,475,412,148,122
TDKKAATGGTPSQSG,1240,504,449,935,704,983,325,114,709,988,178,140
KENKAATGGTPSQPG,401,421,3650,1030,313,1380,410,86.5,256,178,541,193
DNKAATGGAPSPPGA,614,430,1870,544,415,1700,364,214,252,190,280,150
TEKKPAAGETPSPPG,1130,243,4050,391,396,2100,118,283,255,149,224,1410
DKKTAAGETPSPSGA,524,226,276,396,391,2460,159,214,134,500,497,396
GKDKKAAAGGAPSQP,240,215,532,1460,676,379,106,79.3,92.8,85.9,71.8,79
PSGTEKKPATGGTPS,22000,2660,19700,5270,6220,6710,810,541,993,250,390,666
GTDNKAATGGTPSPP,356,873,31300,403,551,205,222,556,1870,356,156,91.6
TDNKAATGETPSPSG,3180,5950,19200,218,149,13900,145,314,214,135,423,3200
PSGKDNKPAAGEAPS,4110,1260,18400,5160,4850,18200,861,1440,383,203,371,153
PSGTEKKAAAGETPS,15700,2880,6110,3970,4400,6230,568,477,221,1070,342,431
SGTDNKTATGGTPSQ,583,933,44300,636,459,389,297,751,2010,170,216,306
TEKKAATGGTPSPSG,1720,546,545,2870,1440,2320,268,157,1100,1410,235,269
KENKPAAGETPSPPG,245,328,18800,317,386,4210,162,341,192,167,180,1050
PSGTEKKAAAGGAPS,12500,557,3520,10700,7220,5200,673,319,346,269,257,383
NKAAAGETPSPPGAS,250,578,14400,326,210,791,475,1050,225,573,315,1650
KTAAGETPSQPGASS,781,1660,30300,181,466,555,162,1360,158,242,232,207
EKKTATGEAPSPPGA,10700,15400,12800,365,450,19600,229,865,154,101,200,780
TENKTATGGTPSQPG,24000,1100,846,1760,437,648,541,185,467,274,1600,148
GKDNKTATGGAPSQS,670,262,928,2450,1390,1340,239,141,119,187,85.8,154
TENKTATGETPSQPG,20200,3390,34400,203,157,7580,106,756,294,238,187,234
